According to PubChem BioAssay (NCI):
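Exposure lasted 48 hours, with cells grown in 96-well plates and compounds tested at five concentrations. GI50 = concentration required for 50% inhibition of growth.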 For part of its entries the source gives two or more results. The other results are left out here. An entry can have further records. For some of these results: A record mostly stands for its own series of concentrations, not given here; some values may only mark the edge of a range. For some of these results: The records of an entry are repeated measurements in other runs, samples, wells, individuals or studies. Marks in square brackets tell the records apart. Letters hold for one entry only.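 The concentration for full growth arrest is given as TGI.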

How the values were obtained:
Assay in all cases: inhibition of tumour cell growth, NCI panel, 48 h
[1] = test system: UACC-62 melanoma
[2] = test system: MOLT-4 leukemia
[3] = test system: OVCAR-4 ovarian
[4] = test system: NCI/ADR-RES ovarian
[5] = test system: MCF7 breast
[6] = test system: NCI-H23 lung
[7] = test system: SR leukemia
[8] = test system: SF-539 CNS
[9] = test system: UACC-257 melanoma
[10] = test system: SK-OV-3 ovarian
[11] = test system: HT29 colon
[12] = test system: MDA-MB-231 breast
[13] = test system: RXF 393 renal
[14] = test system: RPMI-8226 leukemia
[15] = test system: MALME-3M melanoma
[16] = test system: ACHN renal
[17] = test system: PC-3 prostate
[18] = test system: KM12 colon
[19] = test system: OVCAR-5 ovarian
[20] = test system: T-47D breast
[21] = test system: BT-549 breast
[22] = test system: HOP-92 NSCLC
[23] = test system: OVCAR-8 ovarian
[24] = test system: HCT-15 colon
[25] = test system: SNB-75 CNS
[26] = test system: HOP-62 NSCLC
[27] = test system: EKVX NSCLC
[28] = test system: COLO 205 colon
[29] = test system: SK-MEL-5 melanoma
[30] = test system: HS 578T breast
[31] = test system: A549 NSCLC
[32] = test system: HCT-116 colon
[33] = test system: HCC-2998 colon
[34] = test system: SNB-19 CNS
[35] = test system: SK-MEL-28 melanoma
[36] = test system: SN12C renal
[37] = test system: SK-MEL-2 melanoma
[38] = test system: SF-268 CNS
[39] = test system: NCI-H460 lung
[40] = test system: CAKI-1 renal
[41] = test system: UO-31 renal
[42] = test system: IGROV1 ovarian
[43] = test system: HL-60(TB) leukemia
[44] = test system: DU-145 prostate

`C/C=C/C1=CN2C(=O)c3cc(OC4OC(C)C(NC)C(C)(O)C4O)c(C)c(O)c3N=C[C@@H]2C1` (some centres undefined) was tested, and the TGI [1] was 250 nM and < 10 nM, the TGI [2] was 386 nM and 31.1 µM and the GI50 [3] was 299 nM and < 10 nM. The GI50 [4] was 269 nM and < 10 nM, the GI50 [5] was 131 nM and < 10 nM and the TGI [6] was 398 nM and < 10 nM. For the same compound, the TGI [7] was 105 nM and 12.2 µM, the TGI [8] was 306 nM and < 10 nM and the GI50 [9] was 162 nM and < 10 nM. For the same compound, the TGI [9] was 575 nM and < 10 nM, the GI50 [10] was 323 nM and < 10 nM and the GI50 [11] was 252 nM and < 10 nM. For the same compound, the GI50 [12] was 279 nM and < 10 nM, the TGI [12] was 967 nM and 64.1 nM and the GI50 [13] was 125 nM and < 10 nM. For the same compound, the TGI [13] was 293 nM and < 10 nM, the TGI [14] was 438 nM and 15.4 µM and the GI50 [15] was 169 nM and < 10 nM. For the same compound, the TGI [15] was 512 nM and < 10 nM, the TGI [16] was 813 nM and < 10 nM and the GI50 [17] was 169 nM and < 10 nM. The GI50 [18] was 165 nM and < 10 nM, the TGI [18] was 582 nM and 26.4 nM and the GI50 [19] was 333 nM and < 10 nM. The GI50 [20] was 237 nM and < 10 nM, the GI50 [21] was 187 nM and < 10 nM and the TGI [21] was 697 nM and < 10 nM. For the same compound, the GI50 [22] was 123 nM and < 10 nM, the TGI [22] was 749 nM and < 10 nM and the GI50 [23] was 194 nM and < 10 nM. The GI50 [24] was 269 nM and < 10 nM, the GI50 [25] was 150 nM and < 10 nM and the TGI [25] was 335 nM and < 10 nM. The GI50 [26] was 152 nM and < 10 nM, the TGI [26] was 640 nM and < 10 nM and the GI50 [27] was 151 nM and < 10 nM. For the same compound, the TGI [27] was 550 nM and 45.4 µM, the GI50 [28] was 198 nM and < 10 nM and the TGI [28] was 555 nM and < 10 nM. The GI50 [29] was 155 nM and < 10 nM, the TGI [29] was 384 nM and < 10 nM and the GI50 [30] was 156 nM and < 10 nM. The TGI [30] was 465 nM and 22 µM, the GI50 [31] was 207 nM and < 10 nM and the GI50 [32] was 205 nM and < 10 nM. The GI50 [33] was 169 nM and < 10 nM, the TGI [33] was 429 nM and < 10 nM and the GI50 [34] was 114 nM and < 10 nM. The TGI [34] was 937 nM and 12.3 µM, the GI50 [35] was 185 nM and < 10 nM and the TGI [35] was 397 nM and < 10 nM. The GI50 [36] was 178 nM and < 10 nM, the GI50 [37] was 216 nM and < 10 nM and the TGI [37] was 457 nM and < 10 nM. The TGI [38] was 294 nM and 15.1 nM, the TGI [39] was 475 nM and 11.7 µM and the TGI [40] was 112 nM and > 100 µM. For the same compound, the TGI [41] was 383 nM and 35.5 nM, the GI50 [42] was 132 nM and < 10 nM and the TGI [42] was 783 nM and 25.1 µM.
In the case of `CCCCCCNCCCNc1c2ccccc2nc2cccc([N+](=O)[O-])c12`, the TGI [7] was 3.76 nM and 13 µM, the TGI [43] was 52.6 nM and 58.1 µM and the TGI [14] was 9.05 nM and 405 nM. The TGI [44] was 35.4 nM and 1.18 µM and the TGI [34] was 1.32 µM and 118 nM.
For `COc1ccc(C2c3c(-c4ccccc4)nn(-c4ccccc4)c3Oc3ncn4nc(CC#N)nc4c32)cc1OC` (centres undefined), the TGI [1] was > 100 µM [sample A, 1 test] and 7.22 µM [sample B, mean of 2 tests], the GI50 [9] was > 100 µM [sample A, 1 test] and 5.78 µM [sample B, mean of 2 tests] and the GI50 [10] was > 100 µM [sample A, 1 test] and 3.81 µM [sample B, mean of 2 tests]. The TGI [13] was 93.5 µM [sample A, 1 test] and 9.1 µM [sample B, 1 test], the TGI [15] was 81.5 µM [sample A, 1 test] and 6.45 µM [sample B, 1 test] and the GI50 [19] was > 100 µM [sample A, 1 test] and 5.32 µM [sample B, mean of 2 tests]. For the same compound, the TGI [22] was > 100 µM [sample A, 1 test] and 6.81 µM [sample B, 1 test], the TGI [26] was > 100 µM [sample A, 1 test] and 7.8 µM [sample B, mean of 2 tests] and the GI50 [44] was > 100 µM [sample A, 1 test] and 3.59 µM [sample B, mean of 2 tests]. The GI50 [35] was > 100 µM [sample A, 1 test] and 4.92 µM [sample B, mean of 2 tests], the GI50 [37] was > 100 µM [sample A, 1 test] and 5.24 µM [sample B, mean of 2 tests] and the GI50 [39] was > 100 µM [sample A, 1 test] and 9.3 µM [sample B, mean of 2 tests]. The GI50 [40] was > 100 µM [sample A, 1 test] and 3.26 µM [sample B, mean of 2 tests].
In the case of `CNC(=O)CN1CCC(Oc2cc3c(Nc4cccc(Cl)c4F)ncnc3cc2OC)CC1`, the TGI [27] was 725 nM [sample A, mean of 2 tests] and > 10 µM [sample B, mean of 2 tests].
